# Laboratory results taken from PubChem BioAssay AID504466 (National Center for Advancing Translational Sciences (NCATS), 2011).
# Hit rate of the full screen: of about 330,000 compounds, about 4,200 (1.3%) were called active. This list was built around the results that the source calls inconclusive (neither active nor inactive); the mix of calls is not that of the screen. Calls come from the whole dose curve; as a rule, active = well fitted activation curve with a large enough effect; inconclusive = small, poorly fitted or top-dose-only effect; inactive = no such curve, though single readings can be large or run the other way. Potencies beside an inconclusive call are fits to weak or partial responses and may not hold up.
# Test: qHTS screen for small molecules that induce genotoxicity in human embryonic kidney (HEK293T) cells expressing luciferase-tagged ELG1; note: nearly all actives have a fitted effect of over 60% in size; for activity change, positive = activation: % of control where 0% means no effect
# Settings: HEK293T ELG1-luciferase reporter, luminescence, 16 h; series mostly up to 46 µM; activity change, positive = activation: at the top concentration
# Procedure, shortened: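 16 hr compound incubation (37 °C, 5% CO2) of HEK293T cells carrying luciferase-tagged ELG1; luciferase then measured by ONE-Glo luminescence after 30 min at RT.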
# Potency is the fitted concentration of half-maximal effect; tags give direction and shape of the fitted curve.
Structure (SMILES),Potency,"activity change, positive = activation"
COc1ccc(-c2ccnc(-c3ccc(O)cc3)n2)cc1,"inconclusive: 25.9 µM [activator, partial curve, poor fit]",
Cn1c(N)c(C(=O)COC(=O)c2ccc(OC(F)F)cc2)c(=O)n(C)c1=O,,inactive: -3.2%
COc1cccc(-c2nnc(SCC(=O)Nc3cc(C)on3)o2)c1,"inconclusive: 13 µM [activator, partial curve, poor fit]",
O=C(CSc1ccccc1)NC1CCCCCCC1,"inconclusive: 14.6 µM [activator, single point]",
CCOC(=O)CN1N=C(/C=C/c2ccc(C(C)C)cc2)CCC1=O,"inconclusive: 10 µM [activator, partial curve, poor fit]",
Fc1ccc(N/N=C/c2ccncc2)c(F)c1,"inconclusive: 18.4 µM [activator, partial curve]",
Cc1ccc(NC(=O)/C(C#N)=C/c2ccc(C)s2)c(C)c1,"inconclusive: 25.9 µM [activator, single point]",
O=C1CCC/C(=N\NC(=O)c2ccc(COc3cccc4cccnc34)cc2)C1,,inactive: -0.804%
O=[N+]([O-])c1cc(-c2ccc(/C=N/c3nc4ccccn4c3-c3ccco3)o2)ccc1Cl,"inconclusive: 5.17 µM [activator, full curve]",
Cc1ccc(Cn2ncc3c(N4CCN(Cc5ccc(Cl)cc5)CC4)ncnc32)cc1,,inactive: -12.8%
NS(=O)(=O)c1cccc(NC(=O)COC(=O)CCC2CCCC2)c1,,inactive: 3.98%
Nc1c(C(=O)Nc2ccc(S(=O)(=O)N3CCCC3)cc2)sc2nc3ccc(OC(F)(F)F)cc3cc12,"inconclusive: 13 µM [activator, partial curve, poor fit]",
CC(=O)c1ccc(OCC(=O)N(C)CC(=O)Nc2ccc(N3CCOCC3)cc2)cc1,,inactive: -2.56%
Cc1cccc(NC(=O)COC(=O)c2cccc3c2C(=O)c2ccccc2C3=O)c1C,,inactive: -2.55%
CCS(=O)(=O)c1ccc2oc(Nc3ccccc3C)nc2c1,"inconclusive: 14.6 µM [activator, partial curve]",
c1ccc(Nc2nc(-c3cccs3)cs2)nc1,"inconclusive: 1.3 µM [activator, partial curve]",
COc1cc(/C=N/O)ccc1OCc1ccc(Cl)cc1,active: 2.06 µM,
CCOc1ccc(NC(=O)c2ccco2)c([N+](=O)[O-])c1,"inconclusive: 5.17 µM [activator, partial curve]",
C=CCN(CC=C)c1cnn(-c2nc3ccccc3[nH]2)c(=O)c1Cl,"inconclusive: 2.82 µM [activator, partial curve, poor fit]",
Cc1ccc(C(=O)NCCOc2ccc(Cl)cc2)cc1,"inconclusive: 18.3 µM [activator, partial curve, poor fit]",
CC(=O)Cn1cnc2c(cnn2-c2ccc(C)c(C)c2)c1=O,"inconclusive: 10.3 µM [activator, partial curve]",
c1coc(CSc2ncnc3c2oc2ccccc23)c1,"inconclusive: 14.6 µM [activator, single point]",
O=C(NCCc1ccccc1)c1noc2c1CCCCC2,"inconclusive: 7.31 µM [activator, partial curve]",
CC(=O)c1ccc(NC(=S)N(Cc2ccccc2)C(C)C2CC2)cc1 (centres undefined),"inconclusive: 2.91 µM [activator, single point]",
Cn1ncc([N+](=O)[O-])c1C(=O)Nc1ccc(-c2nc3ccccc3[nH]2)cc1,"inconclusive: 2.59 µM [activator, full curve]",

Structure (SMILES),Potency,"activity change, positive = activation"
O=C(/C=C/c1cccs1)c1ccc(N2CCOCC2)cc1,"inconclusive: 2.59 µM [activator, full curve]",
COc1ccc(NS(=O)(=O)c2cccc(C(=O)O)c2)cc1S(=O)(=O)N1CCOCC1,,inactive: 0.287%
Cc1cc(C(=O)Nc2cccc(/C=C/C(=O)O)c2)c(C)o1,,inactive: 0.541%
O=C1NC(=O)/C(=C\c2ccc(O)cc2O)S1,"inconclusive: 18.3 µM [activator, partial curve, poor fit]",
O=C1C2C3C=CC(C4CC34)C2C(=O)N1/N=C/c1cccs1 (centres undefined),,inactive: 7.16%
CCOc1ccc2nc(NC(=O)CCC(=O)c3cccs3)sc2c1,active: 10.3 µM,
Cc1ccc(C2=Nc3ccccc3N=C(C(Cl)Cl)C2)cc1,"inconclusive: 0.13 µM [activator, single point]",
COCc1cc(C)nc(N/N=C/c2ccc(-c3ccc(C(=O)O)c(Cl)c3)o2)c1C#N,,inactive: -0.513%
CC1CCC(NC(=O)c2cc3c(s2)CCCC3)CC1 (centres undefined),"inconclusive: 11.6 µM [activator, partial curve, poor fit]",
COc1ccc(-c2nc(CS(=O)CC(=O)NC3CCC(C)CC3)c(C)o2)cc1OC (centres undefined),"inconclusive: 13 µM [activator, partial curve]",
COc1ccc(-c2cc(C(=O)N3CCCC3)no2)cc1,active: 2.91 µM,
CCN(CC)c1cc(Oc2ccccc2)ncn1,"inconclusive: 14.6 µM [activator, partial curve]",
CCOC(=O)c1c(C)[nH]c(C(=O)NCc2ccccn2)c1C,"inconclusive: 18.3 µM [activator, partial curve, poor fit]",
Cc1ccc2cccc(OC(=O)c3ccc4c(c3)OCCO4)c2n1,"inconclusive: 25.9 µM [activator, partial curve, poor fit]",
CCOC(=O)N1CCC(NC(=O)c2cc3sccc3n2CC)CC1,,inactive: 3.45%
CCOc1ccc(NC(=S)Nc2cc(C)[nH]n2)cc1,"inconclusive: 20.6 µM [activator, partial curve, poor fit]",
O=C(Nc1ccc(Cl)cc1)Nc1ccccc1C(=O)O,"inconclusive: 6.51 µM [activator, single point]",
CN(Cc1ccccc1)C(=O)CCC(=O)N(C)Cc1ccccc1,"inconclusive: 14.6 µM [activator, partial curve]",
O=c1cc(/N=C/c2coc3c(ccc4ccccc43)c2=O)[nH]c(=S)[nH]1,,inactive: -2.72%
Cc1ccc(NC(=O)Cn2c(/C=C/c3ccccc3)nc3ccccc32)cc1C,"inconclusive: 18.4 µM [activator, partial curve]",
O=C(O)c1cccc(N/N=C/c2cccs2)c1,"inconclusive: 0.13 µM [activator, full curve]",
Cc1ccc(CNC(=O)CC(C)S(=O)(=O)c2ccc3c(c2)NC(=O)CS3)o1 (centres undefined),,inactive: -1.52%
COc1ccc(N(CC(=O)NCc2ccco2)C(=O)CCC(=O)Nc2nccs2)cc1,,inactive: 1.42%
Cc1ccccc1-n1nc2c(c1NC(=O)C1CCCC1)CS(=O)(=O)C2,,inactive: -0.367%
CN(C)S(=O)(=O)c1ccc(N2CCCC2)c(C(=O)NC2CCCCC2)c1,,inactive: 0.0182%

Structure (SMILES),Potency,"activity change, positive = activation"
COc1ccc(NC(=O)n2ncc3c(C)cccc32)cc1,"inconclusive: 2.31 µM [activator, full curve]",
COc1ccc(NC(=O)CSc2nnc(-c3ccccc3)n2Cc2ccco2)c(OC)c1,,inactive: -0.694%
CC(C)Oc1ccc(C(=O)Nc2nnc(SCC(=O)N3CCOCC3)s2)cc1,"inconclusive: 0.58 µM [activator, partial curve]",
CCOc1ccc(N2CC(C(=O)NC3=NCCS3)CC2=O)cc1 (centres undefined),,inactive: -1.55%
COC(=O)[C@H](Cc1ccccc1)NC(=O)c1cc(COc2c(F)cccc2F)on1,"inconclusive: 16.4 µM [activator, single point]",
COc1cc([N+](=O)[O-])cc(/C=N/NC(=O)Cn2nc(C)cc2C)c1O,,inactive: -4.28%
C/C(=N\Nc1ccc([N+](=O)[O-])cc1)c1ccc(N)cc1,"inconclusive: 32.6 µM [activator, partial curve, poor fit]",
COc1ccc(C2=Nn3c(nnc3-c3ccccc3OC)SC2)cc1OCC1CC1,"inconclusive: 2.31 µM [activator, partial curve, poor fit]",
C[n+]1cc[nH]c1SCC(=O)c1ccc(Cl)cc1,"inconclusive: 18.3 µM [activator, single point]",
CCCC(=O)N1c2ccccc2[C@@H](N(C(C)=O)c2ccccc2)C[C@H]1C,,inactive: 0.0717%
Cn1ncc2c(Nc3ccc4ccccc4c3)ncnc21,"inconclusive: 13 µM [activator, partial curve]",
CC(=O)c1ccc(NC(=O)c2ccc3snnc3c2)cc1,active: 14.6 µM,
Cc1ccnc(N/C=C/C(=O)c2ccc(Br)cc2)c1,"inconclusive: 2.31 µM [activator, partial curve]",
N#Cc1ccc(COc2cccc3cccnc23)cc1,,inactive: 5.96%
O=C(NCCN1C(=O)C2C3C=CC(C3)C2C1=O)Nc1ccccc1O (centres undefined),,inactive: 17.4%
CCn1cc(C(=O)N[C@@H](CCSC)C(=O)NCCCOC)c(=O)c2cc3c(cc21)OCO3,,inactive: 2.03%
Cc1ccc(C(=O)OCC(=O)NCc2cccs2)c(C)c1,"inconclusive: 23.1 µM [activator, partial curve, poor fit]",
Cc1sc(NC(=O)/C=C/c2ccc(C(C)C)cc2)c(C#N)c1C,,inactive: 5.39%
OCCCNCc1ccc(N(c2ccccc2)c2ccccc2)cc1,,inactive: -1.77%
CSc1nc2ccc(NC(=O)c3cccs3)cc2s1,,inactive: 16.7%
CSCCNC(=O)c1ccc2nc(Cc3ccccc3F)oc2c1,"inconclusive: 23.1 µM [activator, single point]",
O=C(Nc1ccc(-c2cnco2)cc1)c1ccc(Cl)cc1,"inconclusive: 16.4 µM [activator, partial curve, poor fit]",
O=C(Nc1nc2cc3c(cc2s1)OCCO3)C1=COCCO1,"inconclusive: 0.058 µM [activator, full curve, poor fit]",
COc1cc(/C=C/C(=O)OCC(=O)c2c(N)n(C)c(=O)n(C)c2=O)ccc1OC(F)F,,inactive: -6.43%
